Data taken from PubChem BioAssay AID588342 (National Center for Advancing Translational Sciences (NCATS), 2011).
“And” between values parts separate entries of the source, which are not always exact repeats. Equal entries are not always repeated. The campaign covered roughly 360,000 compounds. About 25,000 (6.9%) were called active. Inconclusive means that the source gave no clear call. Such entries were picked first, then a sample of the others. The call rests on the fitted dose curve; in most records, active means well fitted inhibition curve with a large enough effect; inconclusive means small, poorly fitted or top-dose-only effect; inactive means flat fitted curve, though single readings scatter. Potencies beside an inconclusive call are fits to weak or partial responses and may not hold up.

Target: Luciferin 4-monooxygenase (Photinus pyralis) (UniProt P08659)
UniProt P08659, sequence (P08659 whole entry, looked up): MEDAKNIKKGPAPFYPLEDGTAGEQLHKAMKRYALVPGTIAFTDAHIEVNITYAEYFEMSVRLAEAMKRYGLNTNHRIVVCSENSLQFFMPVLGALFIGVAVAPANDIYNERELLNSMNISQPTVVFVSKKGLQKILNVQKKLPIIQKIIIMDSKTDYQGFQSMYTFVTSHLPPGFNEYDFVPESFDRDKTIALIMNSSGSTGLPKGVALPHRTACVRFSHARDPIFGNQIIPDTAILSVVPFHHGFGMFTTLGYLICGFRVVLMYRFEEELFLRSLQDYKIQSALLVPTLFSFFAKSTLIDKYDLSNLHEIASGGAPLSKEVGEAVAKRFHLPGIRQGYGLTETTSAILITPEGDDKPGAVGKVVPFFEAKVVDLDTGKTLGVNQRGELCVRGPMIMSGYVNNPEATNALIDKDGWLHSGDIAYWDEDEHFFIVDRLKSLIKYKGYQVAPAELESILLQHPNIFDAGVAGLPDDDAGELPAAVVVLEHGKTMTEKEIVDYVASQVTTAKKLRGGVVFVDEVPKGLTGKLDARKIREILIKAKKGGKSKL
Experiment: qHTS profiling assay for firefly luciferase inhibitor/activator using purifed enzyme and Km concentrations of substrates (counterscreen for miR-21 project); further: nearly all actives have a fitted effect of over 55% in size
Conditions: purified FLuc, luminescence inhibition; series mostly up to 57.5 µM
How it was run: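 Biochemical qHTS of compounds, final roughly 60 µM downward over six points, against 10 nM purified firefly luciferase using Km concentrations of substrates (10 uM D-luciferin, 10 uM ATP) in Tris acetate pH 7.5 buffer; luminescence output.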
Potency means the concentration at half of the fitted maximal effect; tags describe the fitted curve by direction and shape.

Row | Structure (SMILES) | Potency
1 | CS(=O)(=O)/C(C#N)=C\c1cnc(S(=O)(=O)c2ccccc2)s1 | inconclusive: 8.49 µM [inhibitor, partial curve]
2 | O=C(CCNc1cccc(Cl)c1)c1cccs1 | inconclusive: 21.3 µM [inhibitor, single point]
3 | CCOc1ccc(C(=O)CCc2nc3ccccc3s2)cc1 | inconclusive: 23.9 µM [inhibitor, single point]
4 | Brc1ccc(-c2csc(NC3=NCCCCC3)n2)cc1 | inconclusive: 7.57 µM [inhibitor, full curve]
5 | Cc1cc(C)n(Cc2cccc(C(=O)N/N=C/c3cccnc3)c2)n1 | inconclusive: 30.1 µM [inhibitor, partial curve, poor fit]
6 | O=C(O)c1cc(-c2cccs2)nc2ccc(Br)cc12 | active: 19 µM
7 | O=c1c2ccccc2nc(COc2ccccc2)n1/N=C/c1cc([N+](=O)[O-])ccc1O | active: 19 µM
8 | CC(C)(C)c1nc2scc(-c3cccs3)c2c(=O)o1 | active: 13.5 µM
9 | CN(Cc1ccccc1)C(=O)CCSc1nc(-c2ccc3c(c2)OCO3)cc(C(F)(F)F)n1 | inactive
10 | COc1ccccc1N1N=C(c2cccs2)CC1c1ccccc1 (stereo unspecified) | inconclusive: 12 µM [inhibitor, partial curve, poor fit]
11 | CCOC(=O)N1CCN(S(=O)(=O)N2CCCC(C(=O)NCc3cccc(OC)c3)C2)CC1 (stereo unspecified) | inactive
12 | Cn1cc([N+](=O)[O-])c(C(=O)Nc2ccc(-c3nc4ccccc4o3)cc2)n1 | inconclusive: 9.53 µM [inhibitor, partial curve, poor fit]
13 | COc1cccc(/C=N/NC(=S)Nc2cccc(S(=O)(=O)N(C)C)c2)c1 | inconclusive: 26.9 µM [inhibitor, partial curve]
14 | Cc1ccc(C(=O)NCC(=O)OCC(=O)c2ccc3c(c2)OCCO3)cc1C | active: 21.3 µM
15 | O=C(CCCCCN1C(=O)[C@@H]2Cc3ccccc3CN2C1=O)Nc1cccc(F)c1 | inactive
16 | COc1ccc(Cl)cc1NS(=O)(=O)c1cc(-c2cc(C)no2)ccc1C | inconclusive: 42.6 µM [inhibitor, partial curve, poor fit]
17 | CC(=O)c1sc2c(c1C)c(=O)n(-c1ccc(Cl)cc1)c(=O)n2Cc1ccc(Cl)cc1 | inactive
18 | CCCCON1C(=O)c2cccc3cccc(c23)C1=O | inconclusive: 23.9 µM [inhibitor, single point]
19 | COc1cc(/C=C/c2nc(C#N)c(NC3CCCCC3)o2)cc(OC)c1OC | inconclusive: 13.5 µM [inhibitor, partial curve]
20 | CCc1ccc(C(=O)N2CCN(c3ccc(NC(=O)c4cccnc4)cc3)CC2)cc1 | inactive
21 | NC(=O)COC(=O)CCCSc1nc2ccccc2s1 | inconclusive: 19 µM [inhibitor, partial curve]
22 | Fc1ccc(NC(=S)NN=C2CCCCCC2)cc1 | inconclusive: 37.9 µM [inhibitor, partial curve, poor fit]
23 | CC(C)Oc1ccc(C2c3c(oc4ccccc4c3=O)C(=O)N2CCCN2CCOCC2)cc1 (stereo unspecified) | inactive
24 | Cc1ccc(OCc2n[nH]c(=S)n2-c2ccc(Br)cc2)cc1 | inactive
25 | CC(C)(C)c1ccc(-c2nc(C=O)c3ccccn23)cc1 | active: 15.1 µM
26 | Cc1nn(C)c(C)c1S(=O)(=O)NCCc1ccc(Cl)cc1 | inactive

Row | Structure (SMILES) | Potency
27 | Brc1cc2c(cc1COc1ccc(-c3nn[nH]n3)cc1)OCO2 | inconclusive: 23.9 µM [inhibitor, partial curve]
28 | CC(C)c1ccc(NC(=O)CCNS(=O)(=O)c2ccc3[nH]c(=O)oc3c2)cc1 | inconclusive: 30.1 µM [inhibitor, partial curve, poor fit]
29 | O=C(CNC(=O)c1cccc(Br)c1)N/N=C/c1ccc2c(c1)OCO2 | active: 16.9 µM
30 | Cc1ccccc1NC(=O)/C(C#N)=C/c1ccsc1 | inactive
31 | COc1ccc(/C=C2\C(=O)c3ccccc3OC2c2ccccc2)cc1 (stereo unspecified) | inactive
32 | COc1ccc(-c2c(-c3ccc4c(c3)OCO4)noc2C)cn1 | active: 21.3 µM
33 | CC1(C)CC(=O)C(N=Nc2c(Cl)cc(Cl)cc2Cl)=C(O)C1 | inconclusive: 26.9 µM [inhibitor, single point]
34 | COc1ccc(C(=O)N/N=C\c2coc3ccccc3c2=O)cc1 | active: 4.78 µM
35 | CS(=O)(=O)N(CC(=O)N1CCOCC1)c1cccc(F)c1 | inactive
36 | Cc1ccc(C(=O)CCC(=O)NCc2ccc(Cl)cc2)cc1 | inactive
37 | CCCc1c(O)nc(SCC(=O)O)[nH]c1=O | inconclusive: 19 µM [inhibitor, partial curve, poor fit]
38 | Cc1ccc(C)c(NC(=O)CSc2cn(CC(=O)N3CCCC3)c3ccccc23)c1 | inactive
39 | COc1ccc(NC(=O)C2CCCN(c3ncccn3)C2)cc1 (stereo unspecified) | active: 16.9 µM
40 | CN(C(=O)CSC(=O)c1ccccc1)c1ccccc1 | inconclusive: 37.9 µM [inhibitor, partial curve, poor fit]
41 | CC(C)=CC(=O)OCC(=O)Nc1ccc(SC(F)F)cc1 | inconclusive: 19 µM [inhibitor, partial curve]
42 | O=C(Cc1cccs1)NCc1ccccc1 | inconclusive: 37.9 µM [inhibitor, partial curve, poor fit]
43 | Cc1ccc(NC(=O)CSCc2cc(=O)n3nc(C4CC4)sc3n2)cc1 | inactive
44 | O=C(N/N=C/c1cccnc1)c1ccc2c(c1)OCO2 | active: 8.49 µM
45 | COc1cccc(N(C(=O)c2csnn2)C(C(=O)NC2CCCC2)c2ccccc2)c1 (stereo unspecified) | inactive
46 | CCN1CN(Cc2ccco2)CNC1=S | inactive
47 | O=C1CCCC(O)=C1N=Nc1ccc2c(c1)OCO2 | active: 9.53 µM
48 | Cc1ccc2cc3cc(C(=O)N4CCN(C(=O)c5ccco5)CC4)sc3nc2c1 | inconclusive: 26.9 µM [inhibitor, partial curve, poor fit]
49 | CCn1ccc(C(=O)Nc2ccc(N(C)C(C)=O)cc2)n1 | inconclusive: 21.3 µM [inhibitor, partial curve, poor fit]
50 | CCc1ccc(OCC(=O)N/N=C(\C)c2ccc3c(c2)OCCO3)cc1 | inconclusive: 30.1 µM [inhibitor, single point]
51 | Cc1ccc(C(=O)NC(NC(=O)c2ccc(C)cc2)c2cccc([N+](=O)[O-])c2)cc1 | inactive
52 | COc1ccc(NC(=O)CSc2nc3[nH]ncc3c(=O)[nH]2)c(OC)c1 | inactive

Row | Structure (SMILES) | Potency
53 | Cn1c(Nc2cccc(Cl)c2)nc2ccccc21 | active: 26.9 µM
54 | O=C(Nc1cccc2ccccc12)N1CCc2ccccc2C1 | inconclusive: 37.9 µM [inhibitor, single point]
55 | Cn1c(SCC(=O)c2ccc(-c3ccccc3)cc2)nnc1-c1ccco1 | inconclusive: 30.1 µM [inhibitor, partial curve, poor fit]
56 | CC(C)Oc1ccc(C(=O)/C(=C\c2cccs2)c2nc3ccccc3o2)cc1 | inconclusive: 23.9 µM [inhibitor, partial curve, poor fit]
57 | O=C(/C=C/c1ccc2c(c1)OCO2)Nc1nc2ccccc2s1 | active: 1.2 µM
58 | CCOc1cc(-c2ccccc2)nc(N)n1 | inconclusive: 30.1 µM [inhibitor, single point]
59 | Cc1cc(C)n2nc(C(=O)Nc3ccn(Cc4ccccc4C)n3)cc2n1 | inconclusive: 30.1 µM [inhibitor, partial curve, poor fit]
60 | Cc1sc2ncn(CC(=O)Nc3cccc(C(F)(F)F)c3)c(=O)c2c1S(=O)(=O)N1CCC(C)CC1 | inactive
61 | NC(=O)c1ccccc1NC(=O)/C=C/c1ccc(Cl)cc1 | active: 1.69 µM
62 | COc1cccc(/C=C2/Sc3ccc(C(=O)NCCN4CCCC4)cc3NC2=O)c1 | inconclusive: 30.1 µM [inhibitor, partial curve, poor fit]
63 | C/C(=N/NC(=O)c1sc(NS(=O)(=O)c2ccccc2)nc1C)c1ccc(F)cc1 | inconclusive: 37.9 µM [inhibitor, partial curve, poor fit]
64 | CSCCC(C(=O)N(C)CC(=O)Nc1cccc(F)c1)N1C(=O)c2ccccc2C1=O (stereo unspecified) | inactive
65 | CCN=c1scc(-c2ccc(F)cc2)n1/N=C/c1ccccn1 | active: 9.53 µM
66 | COc1ccccc1/C=N/NC(=O)CNC(=O)c1ccccc1 | inconclusive: 37.9 µM [inhibitor, single point]
67 | CCn1cnc2sc(C(=O)Oc3cccc(C)c3)c(C)c2c1=O | inconclusive: 7.57 µM [inhibitor, full curve]
68 | COc1cccc(NC(=O)Nc2ccc3c(c2)nnn3C)c1 | active: 6.75 µM
69 | COc1cccc(NC(=O)CCS(=O)(=O)c2ccc3c(c2)oc(=O)n3C)c1 | inactive
70 | COc1cccc(/C=N/NC(=O)c2cccs2)c1 | active: 5.36 µM
71 | O=C(Nc1ccccn1)c1ccc(C(=O)c2ccccc2)cc1 | active: 4.26 µM
72 | O=C(Cn1cc(S(=O)(=O)Cc2ccccc2Cl)c2ccccc21)NCc1ccccc1Cl | inconclusive: 7.57 µM [inhibitor, partial curve, poor fit]
73 | CC(C)(C)C(=O)c1cn(CC(=O)NCc2ccc3c(c2)OCO3)c2ccccc12 | inconclusive: 37.9 µM [inhibitor, partial curve, poor fit]
74 | Nc1ccc2nc(-c3cccnc3)[nH]c2c1 | inconclusive: 23.9 µM [inhibitor, single point]
75 | O=C1C(=Cc2cccn2-c2ccccc2)C(=O)c2ccccc21 | inconclusive: 9.53 µM [inhibitor, partial curve]
76 | Cn1c(CN2CCCCC2)nc2cc(NC(=O)c3cccc(Br)c3)ccc21 | inconclusive: 19 µM [inhibitor, partial curve, poor fit] and inconclusive: 23.9 µM [inhibitor, partial curve, poor fit]
